# In the supplement of paper PMC12217912:
# The list shows a part of the results. The full chains were built here from the parent and the listed change. Inactive controls read about 0.05.
# B1: TEV protease; numbered along this chain (parent)
# chain: MGESLFKGPRDYNPISSSICHLTNESDGHTTSLYGIGFGPFIITNKHLFRRNNGTLVVQSLHGVFKVKDTTTLQQHLVDGRDMIIIRMPKDFPPFPQKLKFREPQREERICLVTTNFQTKSMSSMVSDTSCTFPSGDGIFWKHWIQTKDGQCGSPLVSTRDGFIVGIHSASNFTNTNNYFTSVPKNFMELLTNQEAQQWVSGWRLNADSVLWGGHKVFMVKPEEPFQPVKEATQL
# Variants of: B1
# Test: raw area under fraction-flipped curve 0-4 h after induction (AUC4h, not background-subtracted), DNA-recorder readout of cleavage of the substrate (dimensionless); higher = more cleavage of the substrate by the protease variant
# Conditions: temperature: 34 °C; time window: 0-4 h after rhamnose induction
# Description: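 In vivo DNA recorder in E. coli TOP10(DE3) ΔrhaA at 34 °C. Each TEVp single-site mutant (parent TEVp 0) is paired with a single-site variant of the 7-mer TEVs (canonical ENLYFQ|S). The substrate sits between flexible linkers in a Bxb1-sfGFP-TEVs-SsrA fusion, so cleavage stabilises Bxb1 and speeds flipping of a recombination array, read by NGS. The value is the raw area under the fraction-flipped curve over 0-4 h after rhamnose induction (AUC4h), with ≥20 reads per time point. It is not background-subtracted; inactive controls average about 0.047.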
# 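Further: Bxb1 expression induced with 0.2% (w/v) L-rhamnose at OD600 near 0.5, cultures sampled hourly, flipped fraction per protease–substrate barcode pair counted by paired-end Illumina sequencing.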
Variant,area with substrate ENLYFQA,area with substrate ENLYFQC,area with substrate ENLYFQF,area with substrate ENLYFQG,area with substrate ENLYFQH,area with substrate ENLYFQI,area with substrate ENLYFQK,area with substrate ENLYFQL,area with substrate ENLYFQM,area with substrate ENLYFQN,area with substrate ENLYFQR,area with substrate ENLYFQS,area with substrate ENLYFQT,area with substrate ENLYFQW,area with substrate ENLYFQD,area with substrate ENLYFQP,area with substrate ENLYFQV,area with substrate ENLYFQY,area with substrate ENLYFQQ,area with substrate ENLYFQE
F49R,0.0374,0.0567,0.0708,0.0599,0.0881,0.0581,0.0546,0.0477,0.0606,0.038,0.0556,0.0558,0.0454,0.0588,,,,,,
F49P,0.0627,0.0743,,0.0596,0.0576,0.0563,0.0503,0.0584,0.0591,0.0622,0.058,0.0584,0.0441,0.0514,0.0662,0.0628,0.0378,0.0542,,
F49V,0.0705,0.0719,,,0.0593,,0.0552,0.0571,,0.0637,0.0541,0.0632,,,0.0686,,0.0639,0.0609,,
F49K,0.0582,0.0678,0.0603,0.0596,,0.0532,0.088,0.0558,0.0763,0.0454,0.0592,0.0555,0.05,0.0651,0.0523,0.0452,0.0643,0.0599,,
F49G,0.049,0.0604,0.0555,0.0542,0.0595,0.071,0.0631,0.0536,0.0486,0.0544,0.0516,0.0571,0.0531,0.0518,0.0494,,0.0506,,0.0589,
N45V,0.101,0.0647,0.0329,0.0686,0.0729,,0.0628,0.051,0.0746,0.0665,0.0621,0.0739,0.0567,0.0544,0.0626,0.0554,0.0626,0.0604,0.0642,
H47Y,0.0495,0.0568,,0.0563,0.0557,0.0559,0.0565,0.0438,0.0627,0.0573,0.0586,0.058,0.0527,0.0664,0.0622,0.0547,,,,0.0452
H47F,0.0563,0.0549,0.0533,0.0607,0.0912,0.0553,,0.0604,0.0602,0.0575,0.0622,0.059,0.0672,0.0576,,0.0287,0.0509,0.0519,0.0752,0.0445
H47N,0.0601,0.0619,,0.0499,0.032,0.0532,0.0461,0.0529,0.0472,0.0621,0.0664,0.0605,0.0535,0.0612,0.0641,,0.0565,,,
H47D,0.0799,0.0609,0.0451,,0.0534,,0.0602,0.0535,,0.0523,0.0484,0.0601,0.0472,,0.0598,,0.0498,0.04,,0.0517
H47K,0.0587,0.049,0.0441,0.0628,0.0691,0.0603,0.0584,0.0636,0.056,0.0606,0.0601,0.0635,0.0699,0.0621,0.0782,0.0573,0.0508,,,
K46P,0.0406,,0.0576,,0.0154,0.0502,,0.0595,0.0451,0.0645,0.0536,0.0653,0.0587,0.0557,,0.0584,0.0501,0.0483,,0.0646
V57L,0.0962,,0.116,0.0878,0.0831,0.0539,,0.0599,0.0847,,0.0727,0.111,,0.0372,,,,,,
V57W,0.0966,0.135,,0.0942,0.0958,0.0643,0.0543,0.0919,,,0.0534,0.0982,0.0632,,0.0801,0.0668,0.0472,0.086,,0.0632
V57G,0.134,0.105,0.0935,,,0.0525,,,,0.0815,0.0618,0.0968,0.0643,,,,,0.0589,0.0661,
T55G,0.0815,,,,,0.0558,0.0814,0.0488,0.0748,0.0603,0.0605,0.0912,0.0469,0.0528,0.062,0.067,0.0547,0.0655,,
R51A,0.106,0.106,,0.0908,,,0.0742,0.0589,0.1,,,0.103,,,,0.0647,,0.0762,,
L56D,0.046,0.0458,0.0469,0.0485,0.0346,0.0527,0.0472,0.0369,0.0459,0.0442,0.0446,0.0433,0.052,0.0421,0.0506,0.026,0.0454,0.0459,0.0369,
L56V,0.062,0.0858,,,0.0765,0.0508,0.0574,0.0558,0.0587,0.0562,0.0549,0.0802,,0.0582,,0.0659,0.0536,,,
G54H,0.0727,0.069,0.0616,0.0654,0.06,0.0614,,0.0588,0.0603,0.0626,0.0568,0.0698,0.0687,0.0534,0.0683,,0.0431,0.0847,,
G54R,0.0516,0.0642,,0.0771,0.0559,0.0661,0.0572,0.0589,0.0553,0.0571,0.0524,0.0663,0.064,0.0546,0.0523,0.0689,0.0616,0.0634,,
G54L,0.0688,0.0987,0.0519,,,0.058,0.0454,0.0617,0.0728,0.065,0.0517,0.0672,0.0201,0.0645,,0.0249,0.0615,0.0372,0.0628,
H62F,0.106,0.158,,0.0956,0.082,0.0593,0.0656,0.0575,,0.0698,0.0526,0.0982,0.0571,0.0707,0.0589,0.0559,0.06,0.0732,0.061,
H62D,0.087,0.119,,0.0905,0.0817,0.0652,0.0516,0.0604,0.0685,0.083,0.0638,0.0971,0.0572,0.0561,0.0639,0.0496,,0.0872,,
